Among the data in the antibiotic and cytotoxicity screens of Wong et al. (2023) are cytotoxicity call and growth inhibition call values, retold here.

Structures are written as SMILES. Some of the results follow.

The test system of the first assay is HepG2. As to the kind of experiment: cytotoxicity call (relative viability < 0.9). To be noted: 10 µM.
As to `C[C@H](CO)N1C[C@H](C)[C@@H](CN(C)Cc2ccncc2)Oc2ccc(NC(=O)c3ccncc3)cc2C1=O`, the cytotoxicity call was “inactive”. Regarding `CC(C)NC(=O)N(C)C[C@H]1Oc2ccc(NC(=O)CCN3CCOCC3)cc2C(=O)N([C@H](C)CO)C[C@H]1C`, the cytotoxicity call is “inactive”. On to `C[C@@H]1CN([C@@H](C)CO)C(=O)c2cccc(NS(=O)(=O)c3cccs3)c2O[C@@H]1CN(C)Cc1ccc(-c2ccccc2)cc1`, for which the cytotoxicity call was “active”. In the case of `C[C@H]1CCCCO[C@H](CN(C)Cc2ccc3c(c2)OCO3)[C@@H](C)CN([C@@H](C)CO)C(=O)c2cc(NS(=O)(=O)c3cccs3)ccc2O1`, the cytotoxicity call was “inactive”. On the same count and under the same terms, in the case of `C[C@@H]1CN([C@H](C)CO)C(=O)c2cc(NC(=O)CCC(F)(F)F)ccc2O[C@@H](C)CCCCO[C@H]1CN(C)Cc1ccccc1` it was “inactive”; in that of `CC(C)CSc1ncnc2scc(-c3ccccc3)c12`, “inactive”. Take `C=CCN(Cc1ccccc1)C(=O)[C@@H]1N(c2c(Cl)cccc2CO)C(=O)[C@@H]2[C@H](C(=O)O)[C@@H]3C=C[C@@]21O3`: the cytotoxicity call is “inactive”. Take `COc1ccc(NC(=O)N(C)C[C@@H]2OCCCC[C@@H](C)Oc3ccc(NC(=O)Nc4ccc5c(c4)OCO5)cc3C(=O)N([C@@H](C)CO)C[C@H]2C)cc1`: the cytotoxicity call was “inactive”.

For a further assay, the system named is S. aureus RN4220. The assay is described as follows: growth inhibition call (relative growth <= 0.2). To be noted: 50 µM.
Take `Cn1c(=O)c2[nH]c(NCCN3CCOCC3)nc2n(C)c1=O`: the growth inhibition call was “inactive”. Take `C[C@H](CO)N1C[C@H](C)[C@@H](CN(C)C(=O)c2ccccc2)OCCCC[C@H](C)Oc2ccc(NC(=O)Nc3ccc(F)cc3)cc2C1=O`: the growth inhibition call is “inactive”.

Turning to `C[C@@H](O)C#Cc1ccc2c(c1)O[C@@H](CN(C)C(=O)C1CCCCC1)[C@@H](C)CN([C@@H](C)CO)S2(=O)=O`, the growth inhibition call is “inactive”.

With `C[C@@H]1CCCCO[C@H](CN(C)C(=O)c2ccccc2)[C@H](C)CN([C@@H](C)CO)C(=O)c2cc(NC(=O)Cc3ccccc3)ccc2O1`, the growth inhibition call was “inactive”. In the case of `CNS(=O)(=O)c1cccs1`, the growth inhibition call is “inactive”. Regarding `CN1CCCN=C1C=Cc1cccs1.O=C(O)c1cc2ccccc2c(Cc2c(O)c(C(=O)O)cc3ccccc23)c1O`, the growth inhibition call was “inactive”.

Regarding `C[C@@H]1CN([C@@H](C)CO)C(=O)Cc2cc(NC(=O)CCCCCC(=O)Nc3ccccc3N)ccc2O[C@H]1CN(C)S(=O)(=O)c1cn(C)cn1`, the growth inhibition call was “inactive”.

For `COc1ccccc1CNC(=O)C[C@@H]1C[C@H]2c3cc(NC(=O)C4CCOCC4)ccc3O[C@H]2[C@@H](CO)O1`, the growth inhibition call is “inactive”.

For `CC(=O)ON1C(C)(C)C=C(C(N)=O)C1(C)C`, the growth inhibition call was “inactive”. As for `C[C@@H]1CN([C@@H](C)CO)C(=O)Cc2cc(NC(=O)Cn3cnnn3)ccc2O[C@@H]1CN(C)Cc1ccccc1`, the growth inhibition call was “inactive”. As for `C[C@@H]1CN([C@@H](C)CO)C(=O)Cc2cc(NC(=O)Cc3ccccc3)ccc2O[C@@H]1CN(C)Cc1ccc(Cl)c(Cl)c1`, the growth inhibition call was “inactive”. On to `CCN1C(=O)CN(CC(=O)O)C1=O`, for which the growth inhibition call was “inactive”. As for `C=CCCC(=O)O[C@@H](c1ccccc1)[C@@H](C)N(C)C(=O)[C@H](CC=C)NC(=O)OCC1c2ccccc2-c2ccccc21`, the growth inhibition call is “inactive”. On to `C[C@H](CO)N1C[C@H](C)[C@@H](CN(C)Cc2ccc(-c3ccccc3)cc2)Oc2c(NC(=O)NC3CCCCC3)cccc2C1=O`, for which the growth inhibition call was “inactive”. For `Cn1cnc(S(=O)(=O)N2C[C@H](O)COC[C@@H]3O[C@@H](CC(=O)NCc4cc(F)cc(F)c4)CC[C@H]32)c1`, the growth inhibition call was “inactive”. Turning to `CN1C(=O)c2cc(NC(=O)c3cnccn3)ccc2OC[C@H]2O[C@@H](CC(=O)N[C@@H]3CCN(Cc4ccccc4)C3)CC[C@@H]21`, the growth inhibition call was “inactive”. Take `CCS(=O)(=O)Nc1ccc2c(c1)C(=O)N(C)[C@H]1CC[C@H](CC(=O)NCc3ccccc3F)O[C@H]1CO2`: the growth inhibition call is “inactive”. For `O=C(C[C@@H]1CC[C@@H]2[C@H](COC[C@H](O)CN2S(=O)(=O)c2cccc(Cl)c2)O1)NCCCN1CCOCC1`, the growth inhibition call was “inactive”. Regarding `CCCCCCc1ccc(O)cc1O`, the growth inhibition call is “active”.

For `CCCNC1CCc2nc(N)sc2C1.Cl.Cl` (stereo not drawn), the growth inhibition call is “inactive”.

Turning to `C[C@H]1CN([C@@H](C)CO)C(=O)Cc2cc(NS(C)(=O)=O)ccc2O[C@@H]1CN(C)Cc1ccc2c(c1)OCO2`, the growth inhibition call is “inactive”. On to `C[C@@H]1CN([C@@H](C)CO)C(=O)c2cc(NC(=O)Nc3ccccc3)ccc2O[C@@H](C)CCCCO[C@H]1CN(C)Cc1ccc(C(=O)O)cc1`, for which the growth inhibition call was “inactive”.

For the compound `C[C@@H]1CC[C@@]2(OC1)O[C@H]1C[C@H]3[C@H]4C[C@@H](O)[C@H]5C[C@@H](O[C@@H]6O[C@H](CO)[C@H](O[C@@H]7O[C@H](CO)[C@@H](O)[C@H](O[C@@H]8OC[C@@H](O)[C@H](O)[C@H]8O)[C@H]7O[C@@H]7O[C@H](CO)[C@@H](O)[C@H](O)[C@H]7O)[C@H](O)[C@H]6O)CC[C@]5(C)[C@@H]4CC[C@]3(C)[C@H]1[C@@H]2C`, the growth inhibition call was “inactive”. Take `CC(=O)N(C)C[C@H]1Oc2ncc(C#C[C@@H](C)O)cc2C(=O)N([C@H](C)CO)C[C@H]1C`: the growth inhibition call was “inactive”. `N[C@@H]1CCCN(c2c(Br)cnc3[nH]cc(NC(=O)C4CC4)c23)C1`: the growth inhibition call was “inactive”.

With `COC[C@@H]1CN(C)C(=O)[C@H]2CCN(S(=O)(=O)N(C)C)CC[C@@H]12`, the growth inhibition call was “inactive”. In the case of `CC(=O)C1C(=O)C=C(C)OC1=O` (stereo not drawn), the growth inhibition call was “inactive”. Consider `COc1cc(OC)c(C(=O)CCCN2CCCC2)c(OC)c1.Cl`, for which the growth inhibition call is “inactive”.

For `C[C@H](CO)N1C[C@H](C)[C@H](CN(C)Cc2ccc(C(=O)Nc3ccccc3N)cc2)Oc2ccc(NS(=O)(=O)c3cn(C)cn3)cc2CC1=O`, the growth inhibition call was “inactive”. For `C[C@H]1CN([C@@H](C)CO)C(=O)Cc2cc(NS(=O)(=O)c3ccc(Cl)cc3)ccc2O[C@H]1CN(C)Cc1ccc(-c2ccccc2)cc1`, the growth inhibition call is “inactive”. Still for that read-out and setting: in the case of `O=C(C[C@H]1CC[C@@H]2[C@H](COC[C@H](O)CN2C(=O)Nc2cc(Cl)cc(Cl)c2)O1)N1CCOCC1` it was “inactive”.

Turning to `COCCNC(=O)C[C@@H]1CC[C@@H]2[C@H](COc3ccc(NS(=O)(=O)c4ccc(Cl)cc4)cc3C(=O)N2C)O1`, the growth inhibition call is “inactive”. Take `C[C@H](CO)N1C[C@H](C)[C@@H](CN(C)Cc2ccncc2)Oc2ccc(NC(=O)c3ccncc3)cc2C1=O`: the growth inhibition call is “inactive”. Still for that read-out and setting: the entry for `CC(C)NC(=O)N(C)C[C@H]1Oc2ccc(NC(=O)CCN3CCOCC3)cc2C(=O)N([C@H](C)CO)C[C@H]1C` is “inactive”. Turning to `C[C@@H]1CN([C@@H](C)CO)C(=O)c2cccc(NS(=O)(=O)c3cccs3)c2O[C@@H]1CN(C)Cc1ccc(-c2ccccc2)cc1`, the growth inhibition call is “inactive”. For the compound `C[C@H]1CCCCO[C@H](CN(C)Cc2ccc3c(c2)OCO3)[C@@H](C)CN([C@@H](C)CO)C(=O)c2cc(NS(=O)(=O)c3cccs3)ccc2O1`, the growth inhibition call is “inactive”. As for `C[C@@H]1CN([C@H](C)CO)C(=O)c2cc(NC(=O)CCC(F)(F)F)ccc2O[C@@H](C)CCCCO[C@H]1CN(C)Cc1ccccc1`, the growth inhibition call is “inactive”. In the case of `CC(C)CSc1ncnc2scc(-c3ccccc3)c12`, the growth inhibition call was “inactive”. For the compound `C=CCN(Cc1ccccc1)C(=O)[C@@H]1N(c2c(Cl)cccc2CO)C(=O)[C@@H]2[C@H](C(=O)O)[C@@H]3C=C[C@@]21O3`, the growth inhibition call was “inactive”. The same measure, in the same setting: the entry for `COc1ccc(NC(=O)N(C)C[C@@H]2OCCCC[C@@H](C)Oc3ccc(NC(=O)Nc4ccc5c(c4)OCO5)cc3C(=O)N([C@@H](C)CO)C[C@H]2C)cc1` is “inactive”.
